# According to PubChem BioAssay AID2147 (National Center for Advancing Translational Sciences (NCATS), 2009):
# Several values for one entry are separate records, joined by “and”; a condition that tells them apart may be missing. Equal entries are not always repeated. In all, about 230,000 compounds went through this assay and about 3,600 (1.6%) were called active. Inconclusive results, whose numbers are uncertain, are shown with a selection of clear calls. The call rests on the fitted dose curve; in most records, active means well fitted inhibition curve with a large enough effect (not every such curve was filed as active); inconclusive means small, poorly fitted or top-dose-only effect, or another doubt; inactive means no such curve, though single readings can be large or run the other way. A potency beside an inconclusive call is a rough fit, not a confirmed value.
# Target: Lysine-specific demethylase 4E (Homo sapiens) (UniProt B2RXH2)
# UniProt B2RXH2, sequence (B2RXH2 whole entry, looked up, the tested form may be a part): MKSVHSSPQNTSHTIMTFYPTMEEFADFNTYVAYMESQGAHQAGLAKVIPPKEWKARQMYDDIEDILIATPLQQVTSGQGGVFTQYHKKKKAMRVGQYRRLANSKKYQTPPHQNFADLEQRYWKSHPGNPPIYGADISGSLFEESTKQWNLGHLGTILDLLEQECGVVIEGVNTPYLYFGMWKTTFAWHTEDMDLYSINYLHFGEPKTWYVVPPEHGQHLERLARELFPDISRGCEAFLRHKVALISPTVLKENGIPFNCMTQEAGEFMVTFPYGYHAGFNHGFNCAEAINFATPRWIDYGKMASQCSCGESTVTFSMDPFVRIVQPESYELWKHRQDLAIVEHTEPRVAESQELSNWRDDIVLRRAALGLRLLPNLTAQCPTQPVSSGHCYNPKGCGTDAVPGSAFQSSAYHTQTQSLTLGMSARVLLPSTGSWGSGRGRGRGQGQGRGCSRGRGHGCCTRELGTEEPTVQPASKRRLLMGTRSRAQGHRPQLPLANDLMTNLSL
# Experiment: qHTS Assay for Inhibitors of Human Jumonji Domain Containing 2E (JMJD2E)
# Details: JMJD2E catalytic domain, FDH-coupled NADH fluorescence (FDH is formaldehyde dehydrogenase); series mostly up to 57.1 µM; activity change, negative = inhibition: at the top concentration
# Further: nearly all actives have a fitted effect of over 50% in size.
# Potency means the concentration at half of the fitted maximal effect; tags describe the fitted curve by direction and shape.
# 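Wherever activity change, negative = inhibition is given: 0% = wells with enzyme and -100% = buffer wells without enzyme.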
Compound,Potency,"activity change, negative = inhibition"
C/C(=C\c1ccco1)C1Nc2cccc3cccc(c23)N1,"inconclusive: 31.6 µM [inhibitor, partial curve]",–
COc1cc(OC)c2ccc(=O)oc2c1C(CCN1CCCC1)c1ccc(N(C)C)cc1 (stereo unspecified),"inconclusive: 35.5 µM [inhibitor, partial curve]",–
S=c1[nH]nc(NCCCN2CCOCC2)s1,"inconclusive: 31.6 µM [inhibitor, single point]",–
CC(=O)Nc1ccc2c(c1)nc(CCN1CCC(C)CC1)n2C,"inconclusive: 25.1 µM [inhibitor, partial curve]",–
CC(=O)Nc1nc(-c2ccc([N+](=O)[O-])cc2)cs1,–,inactive: 6.8%
COc1ccccc1/C=C/C=N/n1c(-c2cc(C)[nH]n2)n[nH]c1=S,"inconclusive: 39.8 µM [inhibitor, single point]",–
COc1ccc2nc(/C(C#N)=C\c3ccc(C(=O)O)cc3)[nH]c2c1,"inconclusive: 28.2 µM [inhibitor, single point]",–
Cc1ccc(C)c(/C=N/n2cc(-c3ccccc3)[nH]c2=S)c1,"inconclusive: 35.5 µM [inhibitor, single point]",–
Cc1nc(Nc2ccc(Cl)cc2)c2nnn(Cc3ccccc3)c2n1,"inconclusive: 35.5 µM [inhibitor, single point]",–
COc1cccc(NC(=O)c2ccc(-n3cccn3)nc2)c1,"inconclusive: 35.5 µM [inhibitor, single point]",–
COc1cc2nc(SCc3ccc(Cl)cc3Cl)n(Cc3cccs3)c(=N)c2cc1OC,"inconclusive: 39.8 µM [inhibitor, single point]",–
CNC(=O)c1ccc(-c2cc(C(F)(F)F)nn2C)s1,"inconclusive: 20 µM [inhibitor, partial curve]",–
O=C(c1cccc(F)c1)N1CCN(c2ccc([N+](=O)[O-])c(N3CCOCC3)c2)CC1,–,inactive: -0.334%
Fc1ccc(NC(=S)NCCc2ccccc2)c(F)c1F,–,inactive: -2.43%
Cc1ccc(C2C(C(N)=S)=C(N)OC3=C2C(=O)CC(C)(C)C3)cc1 (stereo unspecified),–,inactive: -3.59%
CC(C)CC(C(=O)NC(C)(C)C)N(Cc1cccs1)C(=O)c1snc(C(N)=O)c1N (stereo unspecified),"inconclusive: 25.1 µM [inhibitor, partial curve]",–
O=C(CC1SC(=O)N(c2ccccc2)C1=O)Nc1ccccc1 (stereo unspecified),–,inactive: -6.24%
CC1CCCN(c2ccc(C(=O)NCc3ccccc3)cn2)C1 (stereo unspecified),"inconclusive: 39.8 µM [inhibitor, single point]",–
O=C(N/N=C/c1ccc(OCC2COCCO2)cc1)c1ccc(Br)cc1 (stereo unspecified),"inconclusive: 39.8 µM [inhibitor, single point]",–
CS(=O)(=O)c1nc(-c2ccccc2)c(-c2ccccc2)[nH]1,–,inactive: -1.21%
Cc1occc1C(=O)Nc1ccc2c(c1)OCCO2,–,inactive: 1.56%
CC1CCc2cc(F)cc3c(O)c(C(=O)NCc4ccco4)c(=O)n1c23 (stereo unspecified),"inconclusive: 8.91 µM [inhibitor, single point]",–
COc1ccc(-c2cc(C(F)(F)F)n3nc(C(=O)NCCCN4CCOCC4)cc3n2)cc1,"inconclusive: 31.6 µM [inhibitor, partial curve]",–
COCCNC(=O)/C(C#N)=C/c1cccc(NC(=O)c2ccccc2Cl)c1,"inconclusive: 35.5 µM [inhibitor, single point]",–

Compound,Potency,"activity change, negative = inhibition"
CC(C)(C)NC(=O)CN(C(=O)C1CSC(=O)C1)c1ccccc1F (stereo unspecified),–,inactive: 2.06%
O=C(N/N=C/c1ccccn1)c1cc(-c2ccc3ccccc3c2)n[nH]1,"inconclusive: 39.8 µM [inhibitor, single point]",–
Cn1c(=N)n(CC(O)c2ccco2)c2ccccc21 (stereo unspecified),–,inactive: 4.85%
N#C/C(=C/C=C/c1ccccc1)C(=O)Nc1ccccc1,"inconclusive: 10 µM [inhibitor, single point]",–
O=C(NCc1ccco1)/C(=C\C=C\c1ccccc1)NC(=O)c1ccccc1Br,"inconclusive: 0.0398 µM [inhibitor, full curve, poor fit]",–
O=C(Oc1ccccc1)N1CCN(c2ccc(F)cc2)CC1,–,inactive: 2.73%
CN(C)c1ccc(/C=N/NC(=O)c2ccn(C)n2)cc1,"inconclusive: 2 µM [inhibitor, partial curve]",–
O=C(Cn1[nH]c(=O)c2ccccc2c1=O)NC1CCCCCC1,–,inactive: -2.6%
O=C(CNCc1ccccn1)Nc1cc(C(F)(F)F)ccc1N1CCOCC1,"inconclusive: 39.8 µM [inhibitor, single point]",–
CCOCCCNc1ncnc2c1[nH]c1ccccc12,"inconclusive: 25.1 µM [inhibitor, partial curve]",–
O=c1cc2oc3cc(O)c(O)cc3c(-c3ccccc3O)c-2cc1O,active: 14.1 µM,–
CCOc1ccc2nc(NCCNS(=O)(=O)c3ccccc3)c(C#N)cc2c1,"inconclusive: 22.4 µM [inhibitor, partial curve]",–
CN(C)CCOC(c1ccccc1)c1ccccc1,"inconclusive: 5.01 µM [inhibitor, single point]",–
Cn1nccc1C(=O)Nn1cnnc1,–,inactive: 1.21%
c1ccc(-c2csc(-c3ccncc3)n2)cc1,"inconclusive: 25.1 µM [inhibitor, partial curve]",–
CC(C)(C)c1ccc(S(=O)(=O)N2CCN(c3ncccn3)CC2)cc1,–,inactive: -5.63%
CN1CCc2cccc3c2[C@@H]1Cc1ccc(O)c(O)c1-3,active: 11.2 µM and active: 25.1 µM and active: 31.6 µM,–
COc1ccc(OC)c(NC(=O)C23CC4CC(C2)CC(n2cnc(Br)n2)(C4)C3)c1,"inconclusive: 39.8 µM [inhibitor, single point]",–
Cc1nc(-c2cnn(-c3ccccc3)c2)c2cc(C)oc2n1,"inconclusive: 31.6 µM [inhibitor, partial curve]",–
O=C(NCc1ccc2c(c1)OCO2)C1CC(c2cccc(Br)c2)=NO1 (stereo unspecified),–,inactive: 0.524%
O=C(NNC(=O)c1cc2cc3ccccc3nc2s1)c1cccc(C(F)(F)F)c1,"inconclusive: 35.5 µM [inhibitor, single point]",–
O=C(/C=C/c1ccccc1)OC1CC(O)C2(O)C=CO[C@@H](OC3OC(CO)C(O)C(O)C3O)C12 (stereo partly specified),"inconclusive: 3.16 µM [inhibitor, partial curve]",–
Cc1ccc2nc3c(cc(S(=O)(=O)c4ccccc4)c(=N)n3Cc3ccco3)c(=O)n2c1,"inconclusive: 7.94 µM [inhibitor, partial curve]",–
CCC(=O)NCCNc1nc2cc(C)cc(C)c2cc1C#N,"inconclusive: 31.6 µM [inhibitor, partial curve]",–

Compound,Potency,"activity change, negative = inhibition"
Cc1ccc(NC(=O)CC2=NC(=O)C(CC(=O)Nc3ccccc3F)S2)cc1 (stereo unspecified),"inconclusive: 35.5 µM [inhibitor, single point]",–
CC(=O)c1c(C)[nH]c(=S)c(C#N)c1-c1ccc(F)cc1,–,inactive: -4.15%
CCNC(=O)/C(C#N)=C/c1c(N2CC(C)OC(C)C2)nc2ccccn2c1=O (stereo unspecified),"inconclusive: 3.55 µM [inhibitor, full curve]",–
CSc1cccc(CNC(=O)CC2C(=O)NCCN2CC(C)(C)C)c1 (stereo unspecified),"inconclusive: 39.8 µM [inhibitor, single point]",–
COn1c(C)c(C(C)=O)c2c3no[n+]([O-])c3ccc21,–,inactive: 2.59%
CC1=C(C(=O)OCC2CCCO2)C(c2coc3ccc(C)cc3c2=O)C2=C(CCCC2=O)N1 (stereo unspecified),"inconclusive: 11.2 µM [inhibitor, partial curve]",–
O=C(NCc1ccco1)C1CCCN1C(=O)Nc1ccc(Cl)cc1 (stereo unspecified),–,inactive: 6.27%
COC(=O)CNC(=O)COC(=O)/C=C/c1ccc2ccccc2n1,"inconclusive: 35.5 µM [inhibitor, single point]",–
Cc1cccc(NC(=O)CSc2ccc(-c3ccco3)nn2)c1C,"inconclusive: 31.6 µM [inhibitor, single point]",–
CCOC(=O)c1c(-c2ccccc2Cl)csc1NC(=O)c1cc(S(=O)(=O)N2CCOCC2)ccc1C,"inconclusive: 31.6 µM [inhibitor, partial curve]",–
O=C(O)c1cc(-c2ccco2)nc2ccccc12,"inconclusive: 28.2 µM [inhibitor, partial curve]",–
Cc1ccc(-n2c(C)cc(/C=C3/C(=N)N4C(c5ccccc5)=CSC4=NC3=O)c2C)cc1,–,inactive: -6.86%
c1ccc(Nc2c(-c3ccco3)nc3ccccn23)cc1,"inconclusive: 31.6 µM [inhibitor, partial curve]",–
CC1CCN(CCCCOc2ccc(C(=O)c3ccccc3)cc2)CC1,"inconclusive: 25.1 µM [inhibitor, single point]",–
COc1cc(/C=N/NC(=O)CCN2CCN(c3ccccc3)CC2)cc(OC)c1OC,"inconclusive: 39.8 µM [inhibitor, single point]",–
Cc1cc(OCC(=O)N2CCCC2)ccc1Cl,–,inactive: -5.75%
C#CCN(Cc1ccco1)C(=O)c1cc(COc2ccc(F)cc2Cl)on1,"inconclusive: 31.6 µM [inhibitor, partial curve]",–
CCCCOCCCNS(=O)(=O)c1ccccc1,–,inactive: -0.17%
CC(C)(Oc1cccc2ccccc12)C(=O)O,"inconclusive: 31.6 µM [inhibitor, partial curve]",–
CC(=O)N1CCN(CC(=O)Nc2c(Cl)cccc2Cl)CC1,"inconclusive: 28.2 µM [inhibitor, single point]",–
O=S(=O)(/N=C(\Sc1ccc(Cl)cc1)c1ccccc1)c1ccccc1,"inconclusive: 28.2 µM [inhibitor, single point]",–
COc1ccc(OC)c(NC(=O)CSc2nncc3ccc(OC)c(OC)c23)c1,"inconclusive: 28.2 µM [inhibitor, single point]",–
COc1ccc(-c2[nH]c(-c3cccc(OC)c3)nc2SCC(=O)NCc2ccco2)cc1,"inconclusive: 25.1 µM [inhibitor, partial curve]",–
